# Source: PubChem BioAssay AID686979 (National Center for Advancing Translational Sciences (NCATS), 2013)
# In all, about 420,000 compounds went through this assay and about 50,000 (12%) were called active. The shares of active, inactive and inconclusive entries below differ from those in the screen. Calls come from the whole dose curve; as a rule, active = well fitted inhibition curve with a large enough effect; inconclusive = small, poorly fitted or top-dose-only effect; inactive = flat fitted curve, though single readings scatter. Potencies of inconclusive entries are left out as doubtful fits.
# Experiment: qHTS for Inhibitors of human tyrosyl-DNA phosphodiesterase 1 (TDP1): qHTS in cells in presence of CPT; note: nearly all actives have a fitted effect of over 55% in size
# Conditions: chicken DT40 Tdp1-/-;hTDP1 cells + 20 nM CPT, ATP luminescence, 48 h; activity change, negative = growth inhibition: at 46.2 µM (top of the series) unless noted
# How it was run: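 Chicken DT40 Tdp1-/- cells complemented with human TDP1, 400 cells/well, exposed to compounds plus 20 nM camptothecin for at least 48 h at 37 C; viability read as ATP content by CellTiter-Glo luminescence.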
# % is set by controls: 0 for no effect and ±100 for the full control effect; potency is the fitted concentration of half-maximal effect; tags give direction and shape of the fitted curve.
SMILES,Potency,"activity change, negative = growth inhibition"
CN(C)S(=O)(=O)c1cccc(NC(=O)CC23CC4CC(CC(C4)C2)C3)c1,active: 23.1 µM,
CCOC(=O)c1c(NC(=S)N2CCOCC2)sc(C)c1C,,inactive: -20.2%
CC(=O)Nc1ccc(/C=C/c2nc(-c3ccccc3O)n(-c3ccccc3)n2)cc1,"inconclusive [inhibitor, partial curve, poor fit]",
O=C(COC(=O)C1CCN(S(=O)(=O)c2cccc3cccnc23)CC1)c1ccccc1,,inactive: -9.58%
Cc1c(OCc2ccc(C(=O)O)o2)ccc2c3c(c(=O)oc12)CCC3,,inactive: -20.7%
CCCCC[C@H]1CN(C2CCCCC2)C(=O)[C@@H]1CC(=O)NCc1ccccc1,active: 11.2 µM,
COCCN=c1scc(-c2cccs2)n1/N=C(\C)c1ccco1,,inconclusive: -14.6% [inhibitor]
CCCCNC(=S)NNC(=O)c1csc(CC)c1,"inconclusive [inhibitor, single point]",
Cn1c(=O)oc2cc(S(=O)(=O)N3CCCC(C(=O)NCCc4ccc(Cl)cc4)C3)ccc21 (stereo not given),,inactive: -3.27%
CCCC(=O)Nc1nc2c(c(=O)[nH]1)CCCC2,"inconclusive [inhibitor, partial curve, poor fit]",
COc1ccc2nc(N3CCN(C(=O)C4COc5ccccc5O4)CC3)sc2c1 (stereo not given),"inconclusive [inhibitor, single point]",
Cc1cccc(-n2c(SCc3cc(=O)n4ccsc4n3)nc3ccccc3c2=O)c1,"inconclusive [inhibitor, single point]",
COc1ccc(OC)c(-n2nnnc2SCC(=O)Nc2ccccc2N2CCOCC2)c1,"inconclusive [inhibitor, single point]",
CS(=O)(=O)N1CCCC(C(=O)Nc2ccc(F)cc2F)C1 (stereo not given),,inactive: -4.14%
Cc1ccc(C2=NNC(=Nc3ccc(F)cc3)SC2)cc1,"inconclusive [inhibitor, single point]",
COc1ccc(N(CC(=O)NC2CC2)S(=O)(=O)c2ccccc2)cc1,,inactive: 7.08%
O=C(CN(C(=O)CNC(=O)c1ccco1)c1cccc(F)c1)NC1CCCCC1,,inactive: -8.52%
Cc1ccc(NC2=NCC(=O)N2Cc2ccc3c(c2)OCO3)cc1,"inconclusive [inhibitor, single point]",
CC(Cc1cnccn1)NC(=O)c1cc(COc2ccc(F)cc2F)on1 (stereo not given),"inconclusive [inhibitor, single point]",
Cc1ccc2c(c1)c1c3n2CCN(C(=O)Cn2c(-c4ccccc4)noc2=O)C3CCC1 (stereo not given),"inconclusive [inhibitor, single point]",
CC(=O)Nc1ccc(N2C(=O)c3ccc(S(=O)(=O)c4ccc(C(=O)O)cc4)cc3C2=O)cc1,,inactive: -4.91%
COc1ccc(NC(=S)N2CCN(C/C=C/c3ccccc3)CC2)cc1,,inactive: -2.25%
Cc1ccc(-c2nc(-c3cc4c([nH]c3=O)CC(C)(C)CC4=O)sc2C)cc1,"inconclusive [inhibitor, single point]",
COc1ccc(-c2nc(SCC(=O)N3CCCC3)n[nH]2)cc1,,inactive: -4.75%
O=C(NCc1ccccc1)c1cc2sccc2n1Cc1ccc(Cl)cc1,,inactive: -14.1%

SMILES,Potency,"activity change, negative = growth inhibition"
CC(C)n1cc(C(=O)c2cc(Br)ccc2O)cc(C#N)c1=O,"inconclusive [inhibitor, single point]",
O=C(NC(Cc1ccccc1)C(=O)N1CCCCCC1)c1ccccc1 (stereo not given),,inactive: -18.7%
CCOC(=O)N1CCN(C(=O)c2ccc(CNS(=O)(=O)c3ccc(OC)cc3)cc2)CC1,,inactive: -15%
COCc1nnc(NC(=O)c2ccc(S(=O)(=O)N(C)C3CCCCC3)cc2)o1,"inconclusive [inhibitor, single point]",
Cc1noc(C)c1S(=O)(=O)Nc1ccc2c(c1)C(=O)N([C@H](C)CO)C[C@H](C)[C@@H](CN(C)S(=O)(=O)c1ccccc1)O2,,inactive: 0.174%
COc1ccc2sc(-c3ccc(N(C)C)cc3)c(C#CCO)c2c1,"inconclusive [inhibitor, single point]",
COC(=O)c1ccc(SCC(=O)NCc2ccccc2)c([N+](=O)[O-])c1,,inactive: 2.26%
COc1ccc(NC(=S)NCCCN2CCN(C3CCCCC3)CC2)cc1,,inactive: -12.4%
O=Cc1ccc(OCCOc2ccc([N+](=O)[O-])cc2)cc1,"inconclusive [inhibitor, partial curve, poor fit]",
COc1ccc(OCCN2CCN(C3CC(=O)N(CCC(C)C)C3=O)CC2)cc1 (stereo not given),"inconclusive [inhibitor, partial curve]",
O=C1c2ccccc2S(=O)(=O)c2cc(C(=O)N3CCC(C(=O)N4CCCCC4)CC3)ccc21,,inactive: -24.1%
CN1CCN(C(=O)/C=C/c2ccc([N+](=O)[O-])cc2)CC1,,inactive: 10.3%
COC(=O)C1(Cc2cc(-c3ccc(OC)cc3OC)no2)CCN(C(=O)OC(C)(C)C)CC1,"inconclusive [inhibitor, single point]",
CCOC(=O)C1CCCN(C(=O)c2cc(OC)ccc2Br)CC1 (stereo not given),"inconclusive [inhibitor, full curve]",
O=C(Nc1ccccn1)c1ccc2c(c1)OCCO2,"inconclusive [inhibitor, single point]",
CCOc1ccccc1C(=O)NCC(=O)Nc1ncccc1C,,inactive: -9.74%
CC(C)c1nc2oc3c(N4CCNCC4)ncnc3c2c2c1CCC2,,inactive: -13.8%
COc1ccc(NC(=O)CNC(=O)c2sc3ccccc3c2Cl)c(OC)c1,"inconclusive [inhibitor, single point]",
CCc1nnc(NC(=O)c2ccc(S(=O)(=O)N3CCCC(C)C3)cc2)o1 (stereo not given),"inconclusive [inhibitor, single point]",
O=C(CCl)NN1C(=O)NC(c2ccccc2)(c2ccccc2)C1=O,"inconclusive [inhibitor, partial curve, poor fit]",
COC(=O)c1c(Cl)c2n3ccccc3c(C)c(-c3ccccc3)c-2c1C(=O)OC,"inconclusive [inhibitor, single point]",
O=C(CN1C(=O)C(=O)N(Cc2ccco2)C1=O)c1c[nH]c2ccccc12,,inactive: -29.7%
Cn1c(=O)c([N+](=O)[O-])c(NCC(O)c2ccccc2)c2ccccc21 (stereo not given),"inconclusive [inhibitor, single point]",
CC1CCCN(C(=O)C2CCN(c3nc(-c4ccccc4)nc4c3CCC4)CC2)C1 (stereo not given),"inconclusive [inhibitor, single point]",
CN(Cc1cnccn1)Cc1nc(Cc2cccc(F)c2)no1,,inactive: 11.2%

SMILES,Potency,"activity change, negative = growth inhibition"
COc1ccc(CC(=O)Nc2sc3c(c2C(=O)Nc2cccc(Cl)c2)CCCCC3)cc1,"inconclusive [inhibitor, single point]",
CCC(=O)N1CCc2cc(S(=O)(=O)CCC(=O)Nc3ccc(OC(F)(F)F)cc3)ccc21,active: 23.1 µM,
O=C(Nc1c2c(nc3ccccc13)CCCC2)c1ccccc1F,,inactive: -24.4%
O=C(O)CCCCCNc1ccc2nsnc2c1[N+](=O)[O-],,inactive: -10.4%
CN(C(=O)COC(=O)c1ccc(Br)c(S(=O)(=O)N2CCOCC2)c1)C1CCCCC1,"inconclusive [inhibitor, single point]",
COc1ccc2nc3oc(C(=O)N4CCN(c5cc(C)ccc5C)CC4)cc3cc2c1,"inconclusive [inhibitor, single point]",
CSc1ccc(/C=C/C(=O)OCC(=O)NCC2CCCO2)cc1 (stereo not given),"inconclusive [inhibitor, partial curve]",
COc1cc(C2Nc3ccccc3NC3=C2C(=O)CC(C)(C)C3)cc(OC)c1OC(C)=O (stereo not given),,inactive: 25.7%
CC1(C(=O)NS(=O)(=O)Cc2ccccc2)CCN1C(=O)CCc1ccccc1 (stereo not given),,inactive: 3.72%
CCOc1ccccc1NC(=O)c1ccccc1-c1ccccc1,"inconclusive [inhibitor, single point]",
O=C(CS(=O)(=O)c1ccccc1)c1cc2cc(F)ccc2oc1=O,"inconclusive [inhibitor, single point]",
C/C(=N\NC(=O)c1c(Cl)c(C)nn1C)c1ccc(NC(=O)C2CCC2)cc1,active: 0.651 µM,
COc1cccc(C(NC(C)=O)c2nc(-c3ccccc3)cs2)c1 (stereo not given),"inconclusive [inhibitor, single point]",
C[n+]1ccc(/C=C/c2c[nH]c3ccc(F)cc23)cc1,active: 1.64 µM,
COc1cc(C2Nc3cccc4cccc(c34)N2)ccc1OC(C)=O,active: 16.4 µM,
COc1ccc(S(=O)(=O)N2CCCCC2)cc1NC(=O)c1ccc([N+](=O)[O-])o1,active: 14.6 µM,
O=C1NCCN1CCN1CCC(c2cn(-c3ccc(F)cc3)c3ccc(Cl)cc23)CC1,active: 2.99 µM,
C=CCn1c(O)c(N=NC(=S)Nc2cccc(OC)c2)c2ccccc21,active: 3.26 µM,
Cc1nn(-c2ccccc2)c2c1N(CCCC(=O)NCc1ccc(N(C)C)cc1)C(=O)CS2,active: 23.1 µM,
CC(C)(c1ccccc1)c1ccc(OCCCNCCO)cc1,"inconclusive [inhibitor, single point]",
Fc1ccc(NC(=S)N2CCc3[nH]c4ccccc4c3C2)cc1,,inactive: -0.771%
O=C(NCc1cccc(Cl)c1)c1ccc(CS(=O)Cc2ccc(Cl)cc2)o1 (stereo not given),"inconclusive [inhibitor, single point]",
CCC1CCCCN1C(=O)CCCOc1ccccc1 (stereo not given),active: 23.1 µM,
O=C(c1ccco1)N1CCN(C(c2ccccc2Cl)c2nnnn2Cc2ccco2)CC1 (stereo not given),active: 16.4 µM,
Cc1cc(NC(=O)c2cc(-c3ccc(C)c(C)c3)nc3ccccc23)no1,active: 11.6 µM,
